The source gives no read counts; variants with many changes may rest on few reads.
B1: OR4K15 (parent)
chain: GUUAACGGUCAUAGGCCAUGGAAACUAGGAGCACCAUUUCGCUGCCAGUGAAGAAAUGAACAAAGAAAAUCUGGGCCAGGCAGGCAUCAAAAGAAAUAGUCUUGCGCUCAACCAGAAAGUCUGUAAUCAUUUUAAGGGUA

Variants of: B1
Test: self-cleavage, relative activity (ratio to wild type); higher = more cleavage; in vitro, sequencing; the parent is a self-cleaving ribozyme

Row | Variant | self-cleavage
1 | GAUAACGGUCAUAGGCCAUGGAGACUAGGAGCACCAUUUCGCUGCCAGUGAAGAAAUGAACAAAGAAAAUCUGGGCCAGGCAGGCAUCAAAAGAAAUAGUCUUGCGCUCACCCGGAAAGUCUGUAAUCAUUUUAAGGGUA [U2A A23G A111C A114G] | 0.01
2 | GAUAACGGUCAUAGGCCGUGGAAACUAGGAGCACCAUUUCGCUGCCAGUGAAGAAAUGAACAAAGAAAAUCUGGGCCAGGCAGGCAUCAAAAGAAAUAGCCUUGCGCUCAACCAGAAAGUCUGUAAUCAUUUUAAGGGUA [U2A A18G U100C] | 1.32
3 | AUUAACGGUCAUAGGCCAUGGAAGCUAGGAGCACCAUUUCGCCGCCAGUGAGGAAAUGAACAAAGAAAAUCUGGGCCAGGCAGGCAUCAAAAGAAAUAGUCUUGCGCUCAACCAGAAAGUCUGUAAUCAUUUUAAGGGUA [G1A A24G U43C A52G] | 1.05
4 | AUUAACGGUCAUAGGCCAUGGAAACUAGGAGCACCAUUUCGCUGCCAGUGAAGAAAUGAACAAAGGAAACCUGGGCCAGGCAGGCAUCAAAAGAAAUAGUCUUGCGCCCAACCAGAAAGUCUGUAAUCAUUUUAAGGGUA [G1A A66G U70C U108C] | 0.04
5 | GAUAACGGUCAUAGGCCUUGGAAACUAGGAGCACCAUCUCGCUGCCAGUGGAGAAAUGAACAAAGAAAAUCUGGGCCAGGCAGGCAUCAAAAGAAAUAGUCUUGCGCCCAACCAGAAAGUCUGUAAUCAUUUUAAGGGUA [U2A A18U U38C A51G U108C] | 0.07
6 | GAUAACGGUCAUAGGCCCUGGAAAUUAGGAGCACCAUUUCGCUGCCAGUGAAGAAAUGAACAAAGAAAAUCUGGGCCAGGCAGGCAUCAGAAGAAAUAGUCUUGCGCUCAACCAGAAAGUCUGUAAUCAUUUUAAGGGUA [U2A A18C C25U A90G] | 1.14
7 | UUUAACGGUCAUAGGCCAUGGAAACUAGGAGCACCAUUUCGCUGCCAGUGAAGAAAUGAACAAAGAAAAUCUGGGCCAGGCAGGCAUCAGAAGAAAUGGCCUUGCGCUCAACCAGAAAGUCUGCAAUCAUUUUAAGGGUA [G1U A90G A98G U100C U124C] | 0.38
8 | AUUAACGGACAUAGGCCAUGGAAACUAGGGGCACCAUUUCGCUGCCAGUGAAGAAAUGAACAAAGAAAAUCUGGGCCAGGCAGGCAUCAAAAGAAAUAGUCUUGCGCUCAACCAGAAAGUCUGUAAUCAUUUUAAGGGUA [G1A U9A A30G] | 1.42
9 | AUUAACGGUCAUAGGCCAUGGAAACUAGGAGCACCAUUUCGCCGCCAGCGGAGAAAUGAACAAAGAAAAUCUGGGCCAGGCAGGCAUCAAAAGAAAUAGUCUUGCGCUCAACCAGAAAGUCUGGAAUCAUUUUAAGGGUA [G1A U43C U49C A51G U124G] | 1.16
10 | GAUAACGGUCGUAGGCCAUGGAAACUAGGUGCACCAUUUCGCUGCCAGUGAAGAAGUGAACAAAGAAAAUCUGGGCCAGGCAGGCAUCAAAAGAAAUAGUCUUGCGCUCAACCAGAGAGUCUGUAAUCAUUUUAUGGGUA [U2A A11G A30U A56G A117G A135U] | 1.18
11 | AUUAACGGUCAUAGGCCAUGGAAACUAGGAGCACCAUUUCGCUGCCAGUGAAGGUAUGAACAAAGAAAAUCUGGGCCAGGCAGGCAUCAAAAGAAAUAGUCUCGCGCUCAACCAGAAAGUCUGUAAUCAUUUUAAGGGUA [G1A A54G A55U U103C] | 1.32
12 | UUUAACAGUCAUAGGCCAUGGAAACUAGGAGCACCAUUUCGCUGCCAGUGAAGGAAUGAACAAAGAAAAUCUGGGCCAGGCUGGCAUCAAAAGAAAUAGUCUUGCGCUCAACCAGAAAGUCUGUAAUCAUUUUAAGGGUA [G1U G7A A54G A82U] | 0.16
13 | AUUAACGGUCAUAGGCCAUGGAAACUAGGAGCACCAUUUCGCUGCCAGUGAAGAAAUGAGCAAAGAAAAUCCGGACCAGGCAGGCAUCAAAAGAAAUAGUCUUGCGCUCAACCAGAAAGUCUGUAAUCAUUUUAAGGGUA [G1A A60G U72C G75A] | 0.51
14 | AUUAACAGUCAUAGGCCAUGGAAACUAGGAGCACCAUUUCGCUGCCAGUGAAGAAAUGAACGAAGAAAAUCUGGGCCAGGCAGGCAUCAAAAGAAAUAGUCUUGCGCUCAACCAGAAAGUCUGUAAUCAUUUUAAGGGUA [G1A G7A A62G] | 1.57
15 | GAUAACGGUCAUAGGCCGUGGAAACUAGGAGCACCAUUUCGCUGCCAGUGAAGAAAUGAACAAAGAAAAUCUGGGCCAGGCAGGCAUCAAAAGAAAUAGUCUUGCGCUCAACCAGAAAGUCUGUGAUCAUUUUAAGGGUA [U2A A18G A125G] | 1.06
16 | AUUAACGGUCAUAGGCCACGGAAACUAGGAGCACCAUUUCGCUGCCAGUGAAGAAAUGAACAAAGAAAAUCCGGGCCAGGCAGGCAUCGGAAGAAAUAGUCUUGCGCUCAACCAGAAAGUCUGUAAUCAUUUUAAGGGUA [G1A U19C U72C A89G A90G] | 0.28
17 | UUUAACGGUCAUGGGCCAUGGAAUCUAGGAGCACCAUUUCGCUGCCAGUGAAGAAAUGGACAGAGAAAAUCUGGGCCAGGCAGGCAUCAAAAGAAAUAGUCUUGCGCUCAACCAGAAAGUCUGUAAUCAUUUUAAGGGUA [G1U A13G A24U A59G A63G] | 0.73
18 | GAUAACGGUCAUGGGCCAUGGAAACUAGGAGCGCCAUUUCGCUGCCGGUGAGGAAAUGAACAAAGAAAAUCUGGGCCAGGCAGGCAUCAAAAGAAAUAGUCUUGCGCUCAACCAGAAAGUCUGUAAUCAUUUUAAGGGUA [U2A A13G A33G A47G A52G] | 0.38
19 | GAUAACGGUCGUAGGCCAUGGAAACUAGGAGCACCAUUUCGCUGCCAGUGGAGAAAUGAACAAAGAAAAUCUGGGCCAGGCAGGCAUCAAAAGAAAUAGUCUUGCGCUCAACCAGAAAGUCUGUAGUCAUUUUAAGGGUA [U2A A11G A51G A126G] | 0.55
20 | AUUAACGGUCAUAGGCCAUGGAAACUAGGAGCACCAUUCCGCUGCCAGUGAAGAAAUGAACAAAGAAAAUCUGGGCCAGGCAGGCAACAAAAGAAAUAGUCUUGCGCUCAACCAGGAAGUCUGUAAUCAUUUUAAGGGUA [G1A U39C U87A A116G] | 0.68
21 | AUUAACGGUCAUAGGCCAUGGAAACUAGGAGCACCAUUUCGCUGCCAGUGAAGAAAUGAACGAAGAAAAUCUGGGCCAGGCAGGCAUCAAAAGAAAUAGUCUUGCGCUCAGCCAGAAAGUCUGUAAUCAUUUUAAGGGUA [G1A A62G A111G] | 0.02

From the RNAGym collection of RNA variant scans (doi:10.7554/elife.90254)
